Results published in publication PMC4336329 (PLoS ONE, 2015).
In all, about 310,000 compounds went through this assay and about 2,200 (0.71%) showed an effect of 50% or more. Effects have a minus sign here. The list shows a part of the results.

Target: human ether-à-go-go-related gene (hERG) potassium channel (human, UniProt Q12809)
Assay: primary screen, population patch clamp on CHO cells stably expressing hERG

Sequence of human ether-à-go-go-related gene (hERG) potassium channel (Q12809 whole entry, looked up): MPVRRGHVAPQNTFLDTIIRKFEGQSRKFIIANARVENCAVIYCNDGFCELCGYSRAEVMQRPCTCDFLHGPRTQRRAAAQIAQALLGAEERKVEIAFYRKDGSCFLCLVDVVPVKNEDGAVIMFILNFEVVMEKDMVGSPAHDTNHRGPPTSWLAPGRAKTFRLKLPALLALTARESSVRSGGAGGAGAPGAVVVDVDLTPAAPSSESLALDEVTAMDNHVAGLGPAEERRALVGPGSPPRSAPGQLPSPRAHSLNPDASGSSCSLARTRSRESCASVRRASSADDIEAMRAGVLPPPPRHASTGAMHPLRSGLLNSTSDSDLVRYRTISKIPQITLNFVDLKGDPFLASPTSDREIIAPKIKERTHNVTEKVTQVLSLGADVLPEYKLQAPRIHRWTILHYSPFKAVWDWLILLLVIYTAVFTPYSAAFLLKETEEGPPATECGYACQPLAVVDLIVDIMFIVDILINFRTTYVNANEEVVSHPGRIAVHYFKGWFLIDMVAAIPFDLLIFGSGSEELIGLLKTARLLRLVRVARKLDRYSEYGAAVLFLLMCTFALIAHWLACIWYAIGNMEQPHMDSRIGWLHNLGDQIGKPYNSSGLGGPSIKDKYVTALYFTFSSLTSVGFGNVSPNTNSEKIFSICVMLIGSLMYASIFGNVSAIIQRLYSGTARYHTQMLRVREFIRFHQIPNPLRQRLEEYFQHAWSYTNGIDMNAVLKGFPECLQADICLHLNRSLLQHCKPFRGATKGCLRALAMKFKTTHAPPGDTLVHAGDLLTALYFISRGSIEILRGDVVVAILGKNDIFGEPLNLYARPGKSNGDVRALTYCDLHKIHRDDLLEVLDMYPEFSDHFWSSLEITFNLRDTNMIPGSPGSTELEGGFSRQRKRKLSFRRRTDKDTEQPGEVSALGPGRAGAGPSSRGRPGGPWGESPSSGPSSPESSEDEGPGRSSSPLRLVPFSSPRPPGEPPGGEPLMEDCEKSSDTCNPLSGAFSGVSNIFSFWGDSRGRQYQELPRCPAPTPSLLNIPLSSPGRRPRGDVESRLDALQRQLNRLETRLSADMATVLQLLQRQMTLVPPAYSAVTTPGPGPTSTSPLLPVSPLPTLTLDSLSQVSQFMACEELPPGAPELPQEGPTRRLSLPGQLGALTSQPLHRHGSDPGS

SMILES	hERG current change (%, negative = inhibition) at 1uM [%]
CSCCC1C(C#N)=C(N)Oc2n[nH]c(-c3cccs3)c21 (stereo not drawn)	3.2
CN(CCC#N)C(=O)c1ccc(CNS(=O)(=O)c2ccc(F)cc2)cc1	14.7
CN(C)c1ccccc1C(=O)N1CCCC(C(=O)c2ccc3ccccc3c2)C1 (stereo not drawn)	5.96
Brc1ccc(CN2CCNCC2)s1	5.34
CSc1ccc(C(C(C(=O)c2cccs2)N2CCOCC2)N2CCOCC2)cc1 (stereo not drawn)	3.73
COc1ccc(N2CCN(C(=O)c3cn(CC4CCCCC4)nn3)CC2)cc1	12.4
Cc1cccn2c(=O)c(C=C(C#N)C#N)c(N3CCN(c4ccccc4)CC3)nc12	10.7
CC(=O)NN1C(=O)/C(=C/c2ccc(C(C)C)cc2)SC1=S	3.99
C/C(=N\NC(=O)c1cc(-c2ccc(C)s2)[nH]n1)c1ccco1	12.1
Cc1cccc(OCC(=O)Nc2ccc(N3CCN(C(=O)c4ccccc4)CC3)cc2)c1	-7.92
CCO[C@@H]1OC(C(=O)N2CCN(Cc3ccc4c(c3)OCO4)CC2)=C[C@H](c2ccc(C(F)(F)F)cc2)[C@H]1CCCO	3.44
CCN1CNC(=S)N(c2ccccc2OC)C1	12.4
Cc1ccc(OCC(=O)NCCNC(=O)c2ccco2)cc1	13.7
Cc1ccc(N(CC(=O)Nc2ccc(C)cn2)S(=O)(=O)c2c(C)nn(C)c2C)cc1	-10.6
C[C@@H](NC(=O)c1nc[nH]c1C(=O)NCC(=O)OC(C)(C)C)c1ccccc1	5.66
CCN(CC)CCNCc1cc(Br)ccc1OCC(=O)NCc1ccccc1.Cl	-54.6
C(=C\c1ccccc1)/CNCC1CCCO1.Cl (stereo not drawn)	9.08
Cc1cccc(NC(=O)Cc2ccc(NC3=NC4CS(=O)(=O)CC4S3)cc2)c1 (stereo not drawn)	6.46
CCn1c(O)c(N=NC(=O)C(O)c2ccccc2)c2ccccc21 (stereo not drawn)	13.2
COc1ccccc1CNC(=O)c1cccc(S(=O)(=O)N2CCN(C)CC2)c1	6.03
Cc1cc(C)c(-n2nnnc2SC(C)C)c(C)c1	9.89
Nn1c(N2CCCCC2)nc2ccccc21	13.2
COCc1ccc(CN2CCCC(C(=O)Nc3ccc(-c4cccc(OC)c4)cc3)C2)o1 (stereo not drawn)	11.9

SMILES	hERG current change (%, negative = inhibition) at 1uM [%]
COc1ccc(CC(NC(C)=O)C(=O)NC2CCN(c3ncccc3[N+](=O)[O-])CC2)cc1 (stereo not drawn)	7.45
O=c1oc2c(CN3CCOCC3)c(O)ccc2c2c1CCCC2	8.08
S=C(NCC1CC1)N/N=C/c1ccccc1Cl	11.1
COc1ccc([N+](=O)[O-])cc1N(CC(O)Cn1nnc2ccccc21)S(=O)(=O)c1ccc(C)cc1 (stereo not drawn)	-9.01
O=C(N/N=C/c1cc([N+](=O)[O-])c(N2CCOCC2)cc1N1CCOCC1)c1cccnc1	3.13
Cc1ccc(NC(=O)c2sc(Cl)nc2-c2ccccc2)cc1	23.3
CC(=O)N1N=C(c2cccc([N+](=O)[O-])c2)OC1c1ccccc1Cl (stereo not drawn)	-1.41
COc1ccc(Cl)cc1NC(=S)NCc1cccs1	8.06
Cc1ccc(/C=C2\SC(=S)N(CCC(=O)N3CCOCC3)C2=O)cc1	14.1
O=C(CNC(=O)c1ccco1)NCC(=O)OCc1cccc(C(=O)Oc2ccccc2)c1	-2.38
CCC(C)NC(=O)Cn1nc([N+](=O)[O-])c(Cl)c1C (stereo not drawn)	6.24
CCOc1ccc2nc(NC(=O)Cn3[nH]c(=O)c4ccccc4c3=O)sc2c1	13.2
CCCc1nc2ccccc2c(NC(=O)CN(CC)CC)c1CC.O=C(O)C(=O)O	12.5
Cc1cc(O)c(/C=N/c2ccccn2)c(=O)o1	5.79
O=C(NCC(c1ccco1)N1CCCCC1)c1ccc(S(=O)(=O)Nc2ccccc2)cc1 (stereo not drawn)	1.8
COc1ccc(-c2csc(NC(=O)C3CC(=O)N(c4ccc5c(c4)OCCO5)C3)n2)cc1 (stereo not drawn)	3.07
COCCC(=O)NC12CC3CC(CC(C3)C1)C2	8.9
COc1ccc(C(=O)Nc2ccncc2)cc1OC	4.34
O=C(O)CCC(=O)N1N=C(c2ccc(Br)cc2)CC1c1cccs1 (stereo not drawn)	9.3
c1ccc(-c2ccc(-c3nc(-c4cccnc4)no3)cc2)cc1	20.3
COc1ccccc1C(=O)Nn1cnnc1	12.4
Cc1nn2c(N3CCN(C)CC3)cc(C(C)(C)C)nc2c1-c1ccccc1	10.9
COc1ccc(-c2[nH]ncc2CN(C)Cc2cccnc2)c(OC)c1	0.157

SMILES	hERG current change (%, negative = inhibition) at 1uM [%]
CCCCOc1ccc(C(=O)NCC(=O)NCc2ccncc2)cc1	7.49
Cc1ccc(-n2cnc3sc(C)c(C)c3c2=O)cc1	1.2
c1nnc(-c2ccc3c(c2)OCO3)o1	3.31
CCc1ccccc1NC(=O)Cc1ccc(-n2cccc2)cc1	7.59
C#CC[N+]1(CC#Cc2ccccc2)CCCC1.[I-]	13.5
CC(=O)Nc1cc2c(cc1C(=O)c1ccc(C)cc1)OCCO2	9.13
Cc1nc2ccccn2c1-c1csc(Nc2cccc(C(=O)O)c2)n1	7.86
Cc1ccccc1NC(=O)/C(C#N)=C\c1cccnc1	2.75
CN(C)C(CNC1CC(C)(C)NC(C)(C)C1)c1cccc(F)c1 (stereo not drawn)	16.8
O=C(O)c1ccc(NCc2ccc3c(c2)OCO3)cc1	10.6
O=C(Nc1ccc(Cl)cc1)c1ccc(CN2CCc3ccccc3C2)cc1	20.3
C#CCC(NC(=O)c1ccc(C(F)(F)F)cc1)C(=O)NCCC (stereo not drawn)	16.3
COc1ccc(C(=O)/C=C/c2ccccc2C(F)(F)F)cc1	13.1
COC(=O)C(Cc1c[nH]c2ccccc12)NC(=O)CNC(C)=O (stereo not drawn)	4.2
O=C(OCC(=O)N1CCN(C(=O)c2ccco2)CC1)c1sc2cc(F)ccc2c1Cl	6.48
CN(C)c1ccnc(Nc2ccc(F)cc2)c1C#N	10.2
COc1cccc(-n2c(O)c(C=NCCN3CCOCC3)c(=O)[nH]c2=O)c1	5.91
CC1(C)Cc2c(c(N3CCOCC3)nc3sc4c(NCC5CCCO5)nnnc4c23)CS1 (stereo not drawn)	10.7
Cc1[nH]n(-c2ccccc2)c(=O)c1/C=N/N1CCOCC1	4.84
CC(C)=CC/C=C1\CCC(C(=O)O)C(C(=O)O)C1 (stereo not drawn)	14.9
CCn1ncc(CN2CCC(Oc3ccc(C(=O)N4CCCC4)cc3)CC2)c1C	8.15
CCOC(=O)c1[nH]ncc1CN1CCc2ccc(NC(=O)C3CCCO3)cc2C1 (stereo not drawn)	13.7
COc1ccc(-c2cc3nc(-c4ccccc4)cc(N4CCCC(O)C4)n3n2)cc1 (stereo not drawn)	11.9

SMILES	hERG current change (%, negative = inhibition) at 1uM [%]
CCOC(=O)CNC(=O)CSc1nc2c(C)cccc2cc1CC	11.7
COc1ccc(C(=O)Nc2ccc(Nc3ccccc3)cc2)cc1Br	6.15
Cc1cc(O)c(CN2CCN(S(=O)(=O)c3cccs3)CC2)cc1C(C)C	0.661
Cn1cnnc1SCC(=O)Nc1ccc(S(=O)(=O)N2CCCC2)cc1	-4.05
Cc1[nH]n2c(=O)c3c(nc2c1-c1ccccc1)CCC3	4.56
COC(=O)c1cn(C(=O)c2ccc(OC)cc2)c2ccccc12	13.3
CCCn1c(N)c(N(CCOC)C(=O)c2ccc([N+](=O)[O-])c(C)c2)c(=O)[nH]c1=O	14.2
CCOC(=O)c1c(C)n(C)c2cc(OCCN(CC)CC)ccc12	9.43
O=C(N/N=C\C1CC=CCC1)c1ccc(Br)o1 (stereo not drawn)	4.02
COc1cc(S(=O)(=O)NC2CCCCC2)ccc1Cl	3.16
CCOc1ccc(CN2CCN(S(=O)(=O)c3ccc(NC(C)=O)cc3)CC2)cc1OC.O=C(O)C(=O)O	-0.675
CCOc1ccc(C2c3[nH]c4ccccc4c3C[C@H]3C(=O)N(C4CCN(Cc5ccccc5)CC4)CC(=O)N23)cc1OC (stereo partly drawn)	12.2
Cc1c(CC(=O)N[C@H](C(=O)O)C(C)C)c(=O)oc2cc3c(cc12)CCC(C)(C)O3	10.5
NC(=O)/C(=C\c1ccncc1)c1cccc2ccccc12	19.7
Cc1ccc(S(=O)(=O)NNC(=S)Nc2cccc(F)c2)cc1	7.03
Cc1ccc(C(=O)NCC(=O)Nc2ncccc2C)s1	17.1
COc1cc(OC)nc(NC(=O)NS(=O)(=O)c2ccc(OC(F)(F)F)cc2)n1	16.3
O=C(NCCCO)C12CC3CC(CC(C3)C1)C2	26.5
CCN1C(=O)C(F)(CC)C(=O)c2ccccc21 (stereo not drawn)	7.71
COc1ccccc1N1CCN(CCN(C(=O)c2ccc(F)cc2)c2ccccn2)CC1.Cl	-57.8
O=C(Nc1cc(F)ccc1F)C1CCCN(c2ncnc3c2nc2n3CCCCC2)C1 (stereo not drawn)	7.35
